Test results published in the supplement of paper PMC11417369.
The other results are listed elsewhere or left out.

system: PF3D7_0420300 AP2 domain 1 (GST-tagged); test: gcPBM binding intensity (ln(normalized median fluorescence intensity)); higher = stronger DNA binding
How it was run: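 DNA-binding domains from P. falciparum, fused to GST and produced in E. coli, were put on an Agilent 4 × 180k double-stranded probe array for 1 h in 1× PBS holding 1% milk, 0.2 mg/ml BSA, 0.5% salmon testes DNA and 0.03% Triton X-100. Probes were primer-extended, 36 bp long and drawn from intergenic genomic regions, with negative controls included. After Alexa488 anti-GST antibody detection and a 488 nm scan, binding intensity was set as the highest Masliner-normalised natural-log median intensity across replicate spots of either probe orientation.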

Sequence | gcPBM binding intensity (ln)
ATATATATATAATATTGTACATAGTAGACATCACAC [XGTACX_site4649] | 9.57
TCTTATTATAAAAGGAGTACATCAATTAGATGTTCC [XGTACX_site8465] | 8.9
TAAAATATGGAAATCACACATTTATTAAAATATATA [CACACA_site4623] | 9.13
TATATATGTATAAGAGTGCATATGCATATATGTATA [GTGCAC_site9692] | 9.33
TTATGTTTATACACTACACACATTATTCATAAAAAA [CACACA_site4637] | 9.38
CATATACATTGTATATGTACATATATATATATATAT [XGTACX_site3772] | 9.26
GATTATATATTAAAAAGTACTTTATAAATACTTCTA [XGTACX_site8992] | 8.94
TGATGCAAAATATATACACACATATATATATATATA [CACACA_site3052] | 9.23
AATAATATTAACACACGTACAAAAGCAAACAACCAA [XGTACX_site7410] | 10.1
ATACATTCTAATACGTGTACATATATATATATATAT [XGTACX_site1881] | 9.36
ATAAAACAAAAACACACACACATACACAAAAAAAAA [CACACA_site3848] | 10.2
TTTATATTATTATATCTTATTAATTATTTATCATTT [TGCATGCA_negctrl_site73] | 9.24
CATCTTAAATAAGAACGTACATTTTTTTTGATGAGA [XGTACX_site3462] | 8.9
AAGACAAAACAAAGAAGTACATATATATATATATAT [XGTACX_site4067] | 9.07
GGAGACTTTGTACAAACACACACATGAACACAATAT [CACACA_site8376] | 9.8
TAATTTAAAAATGAACATATATATGTATGTAAATAT [TGCATGCA_negctrl_site135] | 9.31
TCTTCACCACGTGGAAGTACATAAAAAGATACACAA [XGTACX_site4747] | 9.23
ATGTATATATTTATGTGTACTTAAATTTTTTTTTGT [XGTACX_site8179] | 9.26
TTTTAATATATAGAGTAACAAATTTGTCTATTAATA [CACACA_negctrl_site1495] | 8.98

Sequence | gcPBM binding intensity (ln)
CTTTTTCGCATGAAAAGTACATGAAATATATTACAT [XGTACX_site8971] | 8.92
ACATGCAACCATTCGGGTACAGAAATAAATATATAC [XGTACX_site4174] | 9.3
AATAACTTTTTAAACACACACACATATAAATAAATA [CACACA_site6196] | 10
GGTTATAACGCACATGCACACGTAAATAAATATTAT [CACACA_site9277] | 9.4
TAAATTTTAATAAATACACACAAATTTTAATTCTAT [CACACA_site6039] | 9.22
TTATAACATCTTAAATGTACAAATATGTGCTTATTT [XGTACX_site7285] | 9.15
ATATTAAAATACAGTGCATGTTAAAAATATATTATA [TGCATGCA_site977] | 9.35
TAAAAAAAAAACATCTGTACCAATTTTTATGTATAA [XGTACX_site5196] | 8.92
AATAAAAGTTCACCTGTACACACATATATATATGTA [CACACA_site8500] | 9.62
ATGTATTTATATACTTGTACGTAAGATGTATTATAT [XGTACX_site908] | 9.27
TTAATTCGTACATACACACGCACATATATATATATA [CACACA_site1469] | 9.61
AATAATAATAGAAACACACACACATCTTTAATAATA [CACACA_site4805] | 10
ATATTTTTTTTCTACACACATACAAATATATATTAT [CACACA_site2359] | 9.66
TAATATACTTAATACACACACGAATATTTATAAATA [CACACA_site6675] | 9.73
AAACTCAACTTATATACACACAATCTTTTTTTTTTA [CACACA_site29] | 9.61
CCCCTCGAAATAATTTGTACGAATATATTGTCTGTA [XGTACX_site8308] | 9.64
GATTCATCTAAACACCGTACATATTATATATATATA [XGTACX_site6030] | 9.31
AGTATATTAAAAAATACACACGTATTATATCTACAT [CACACA_site8844] | 9.42
GTTCATAAATTAAACACACACACACCGCTGGATACC [CACACA_site5779] | 10.1

Sequence | gcPBM binding intensity (ln)
TATTGTATATAATAAACACACAATATTAAAAATATA [CACACA_site1057] | 9.4
TATTTAAAAAACACATGTACGAGTATTATATATAAA [XGTACX_site6654] | 9.28
TTTTGTTGAAAAAAAAAAAAAAAATTAAATTAAATT [GTGCAC_negctrl_site636] | 8.68
CATAGACACGAACATACACACGGACATACATACGGA [CACACA_site8101] | 9.8
GTAACAAATTAATAGTGTACATATTTTAAAAAAATA [XGTACX_site7150] | 9.14
AATGCAAAGGTGAAAGAACACACAAAAAAAAAAAAA [CACACA_site9333] | 9.34
GTGTTAAATTTTTGAACATGCAAGTTTTATTATTGA [TGCATGCA_site478] | 9.06
GAAACATACATTTTTTGTCCGTAAGTATTATAATAA [XGTACX_site3273] | 9.24
ATACATCAAGGACACACACACACACCCACACCCACA [CACACA_site8013] | 10.3
CTATGAATAGGAAAAAGTACTAAACCTTTATATATA [XGTACX_site5022] | 9.07
ATTTTGCCTGACCCATGTACATATTATTTTTTGCAT [XGTACX_site2258] | 9.93
CACATAAAAATTGTGTTGCACTTTTATTCTTATATC | 9.34
AGTAGAATATCCCCTACACACCCAAATAATTTACAA [CACACA_site8339] | 9.79
TCAAATATTCATAAATGTACATTTATTTTTCTCCTT [XGTACX_site5827] | 9.28
TAACTTAATATTAATGCACACAATTTATATATATAT [CACACA_site3903] | 9.38
AACTTACTTGGACATACACACATATATATATATATA [CACACA_site2978] | 9.62
TTTATATATTTTAGGTGTACATAAATTTTTATATAT [XGTACX_site5597] | 9.17
AGAACAATTCTGTGGTGTACCAAAAAAAATTTAATT [XGTACX_site8082] | 9.13
TAAATGAATTTTACTATACACACGTATACATTTGTA [CACACA_site1210] | 9.28
